PubChem BioAssay AID1508624 (National Center for Advancing Translational Sciences (NCATS), 2021)
Out of some 48,000 compounds screened, about 120 (0.25%) were called active. Inconclusive results (about 4%) are left out. Calls come from the whole dose curve; as a rule, active = well fitted activation curve with a large enough effect; inconclusive = small, poorly fitted or top-dose-only effect, or another doubt; inactive = no such curve, though single readings can be large or run the other way. The list shows a part of the results.

Assay: Primary qHTS for Identification of Small Molecule Activators of Huntingtin-Antisense Promoter Activity; note: nearly all actives have a fitted effect of over 55% in size
Details: HEK293 HTT-AS promoter firefly luciferase reporter, 24 h; series mostly up to 57.5 µM; activity change, positive = activation: at the top concentration
Procedure, shortened: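 Firefly luciferase readout (Dual-Glo, 10 min RT) after 24 h, 37 °C compound exposure (final up to 57.5 uM) of HEK293 reporter cells cultured 24 h beforehand; PTC124 at 50 uM final as control inhibitor; activity scaled vehicle 0%, zero RLU -100%.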
Potency is the fitted concentration of half-maximal effect.

Row | Structure (SMILES) | activity change, positive = activation | Potency
1 | Cc1ccc(Cl)cc1NC(=O)CN1C(=O)CCc2ccccc21 | inactive: -15.2% | 
2 | CCCCNc1oc(-c2ccc(COc3ccc(OC)cc3)o2)nc1C#N | inactive: -27.6% | 
3 | COc1ccc(C)cc1N(C)C(=O)CCc1nc(-c2ccccc2F)no1 | inactive: -19.7% | 
4 | CCOC(=O)c1c(C)[nH]c(C)c1S(=O)(=O)N1CCC(C(=O)NCc2ccccc2Cl)CC1 | inactive: -22.8% | 
5 | CN(C)c1ccc(Nc2ncnc3sc4c(c23)CCCC4)cc1 | inactive: -78.6% | 
6 | COc1ccc(CC(=O)NCc2nc3cccnc3n2Cc2ccccc2)cc1 | inactive: -9.27% | 
7 | COC(=O)c1ccccc1NC(=O)CCCn1c(=O)c2cccn2c2cccnc21 | inactive: -11.2% | 
8 | Cc1noc(/C=C/c2ccccc2F)c1S(=O)(=O)N1CCC(C(=O)N2CCOc3ccccc32)CC1 | inactive: 22.7% | 
9 | COc1ccc(C)cc1NC(=O)Nc1cccc(-c2noc(C)n2)c1 | inactive: -16.6% | 
10 | CCc1ccc(NC(=O)Cn2c(=O)n(CCC(=O)NCCc3ccc(Cl)cc3)c(=O)c3ccccc32)cc1 | inactive: -8.8% | 
11 | COc1ccccc1CCNC(=O)C(C)Sc1nc(-c2ccccc2)cc(C(F)(F)F)n1 (stereo not drawn) | inactive: -13.4% | 
12 | COc1ccc(C(=O)Nc2nc(-c3nnn(-c4ccc(C(C)C)cc4)c3C)ns2)cc1 | inactive: -13.5% | 
13 | O=C(Cn1ncn2c(cc3ccccc32)c1=O)NCc1ccc(F)cc1 | inactive: -12.7% | 
14 | Cc1ccc(-c2cc(-c3ccccc3)c(C#N)c(SCC(O)CS(=O)(=O)Cc3ccccc3)n2)cc1 (stereo not drawn) | inactive: -9.87% | 
15 | CCCOc1ccc(CNC(=O)c2[nH]c3cc(OC)ccc3c2Sc2ccccc2)cc1 | inactive: 9.04% | 
16 | Cc1ccc(/C=C/C(=O)Nc2ccccc2C(N)=O)o1 |  | active: 3.98 µM
17 | COc1cccc(CNC(=O)c2cc(Sc3cccc(Cl)c3)nc3ccccc23)c1 | inactive: -35.5% | 
18 | COc1ccccc1NC(=O)COc1ccc(-c2nn(C)c(=O)c3ccccc23)cc1 | inactive: -34.2% | 
19 | CC(=O)N1c2ccc(S(=O)(=O)Nc3ccc(Cl)cc3C)cc2CC1C (stereo not drawn) | inactive: -44.5% | 
20 | COc1cc(OC)cc(-c2nc3n(n2)C(c2ccccc2)C(C(N)=O)=C(C)N3)c1 (stereo not drawn) | inactive: -7.36% | 
21 | Cc1sc(-c2cc3c([nH]c2=O)CC(c2ccccc2)CC3=O)nc1-c1ccc(Cl)cc1 (stereo not drawn) | inactive: -40.6% | 
22 | Cc1c(C(=O)N2CCOCC2)oc2c1-c1nn(CC(=O)NCc3cccc(Cl)c3)cc1CC2 | inactive: -29.5% | 
23 | CCCCS(=O)(=O)c1oc(-c2ccc(F)cc2)nc1S(=O)(=O)c1ccc(C)cc1 | inactive: -91.5% | 
24 | COc1ccc(-c2c(C)c3ccc(O)c(CN4CCN(CCO)CC4)c3oc2=O)cc1OC | inactive: -12.3% | 

Row | Structure (SMILES) | activity change, positive = activation | Potency
25 | Cc1ccc(CCNC(=O)c2c(C)oc3ncn(CC(C)C)c(=O)c23)cc1 | inactive: -22.6% | 
26 | CC(C)(C)OC(=O)N1CCC(c2c(C(=O)NCCc3ccccc3)cnn2-c2ccc(F)cc2F)CC1 | inactive: -13.9% | 
27 | CCOC(=O)c1c(NC(=O)COc2cccc(C)c2C)sc2c1CCC(CC)C2 (stereo not drawn) | inactive: 11% | 
28 | Cn1c(=O)oc2cc(S(=O)(=O)N3CCC(C(=O)N4CCN(c5ccccc5F)CC4)CC3)ccc21 | inactive: -23.5% | 
29 | O=C(Cn1cnc2ccccc2c1=O)NCCC(=O)Nc1ccc(F)cc1 | inactive: 16.8% [at 11.5 µM, percent change from vehicle, -100% = no light] | 
30 | CC(C)COc1ccc(C(=O)Nc2cc(-c3ccccc3)no2)cc1 | inactive: 16.3% | 
31 | COc1cccc(N2CCN(S(=O)(=O)c3cc(-c4cc(C)no4)ccc3C)CC2)c1 | inactive: 13.2% | 
32 | CCCCN(CC)CCCNC(=O)Cn1ncc2c([nH]c3ccc(C)cc32)c1=O | inactive: -7.14% | 
33 | O=c1c2cn[nH]c2nc(SCc2c(F)cccc2F)n1-c1ccc(Cl)cc1 | inactive: -4.41% | 
34 | COc1ccc(N(CC(=O)N2CCN(c3ccc(F)cc3)CC2)S(=O)(=O)c2c(C)noc2C)cc1 | inactive: -18.3% | 
35 | CCOc1cccc(C(=O)Nc2nc3c(s2)CC(C(C)(C)C)CC3)c1 (stereo not drawn) | inactive: -7.37% | 
36 | CCCCN1C(=O)C(O)(CC(=O)c2ccc(C)cc2C)c2cc(Br)ccc21 (stereo not drawn) | inactive: -29.2% | 
37 | O=C(NCc1ccco1)c1ccc2c(c1)N(Cc1ccc(F)cc1)C(=O)c1ccccc1S2(=O)=O | inactive: -32.6% | 
38 | CC(=O)Nc1ccccc1-c1nc2ccccc2n(CC(=O)Nc2cccc(C(F)(F)F)c2)c1=O | inactive: -28.8% | 
39 | COc1ccc(/C=C/C(=O)Nc2nc(-c3cccs3)ns2)cc1OC | inactive: -34.6% | 
40 | Cc1ccc(CO)cc1Nc1ncnc2onc(-c3ccc(F)cc3)c12 | inactive: -21.9% | 
41 | CCOc1cccc2cc(S(=O)(=O)c3ccccc3F)c(=O)oc12 | inactive: -66.4% | 
42 | CCS(=O)(=O)N1CC(=O)N(c2ccc(Cl)cc2)C(C)(C(=O)NC2CCCCC2)C1 (stereo not drawn) | inactive: -4.08% | 
43 | CC1=C(c2ccc(C(C)C)cc2)S(=O)(=O)N=C1N1CCC(C(=O)NCCc2ccco2)CC1 | inactive: -27.9% | 
44 | COc1cccc(-c2nc(SCC(=O)NC3CCCC3)c(-c3ccc(C)cc3)[nH]2)c1 | inactive: -23.6% | 
45 | Cc1ccc(CNC(=O)c2ccc3nc(SCc4ccc(F)cc4)[nH]c3c2)cc1 | inactive: -87.1% | 
46 | CCN(CC)C(=O)CSc1nc(-c2ccc(C)cc2)nc2c1Cc1c(CO)cnc(C)c1O2 | inactive: -28.4% | 
47 | CCc1cccc(NC(=O)C(Cc2ccccc2)n2cccc2)c1 (stereo not drawn) | inactive: -31% | 
48 | CCOc1ccc(CNC(=O)c2ccc3c(c2)nc2n3CCOC2)cc1OC | inactive: -21.1% | 

Row | Structure (SMILES) | activity change, positive = activation | Potency
49 | COc1ccc(N2CC(NC(=O)c3ccc(S(=O)(=O)N4CCCCC4)cc3)CC2=O)cc1 (stereo not drawn) | inactive: -34.4% | 
50 | CCc1ccc(NC(=O)CN(c2cc(C)cc(C)c2)S(=O)(=O)c2c(C)[nH]c(=O)[nH]c2=O)cc1 | inactive: -11.8% | 
51 | CC1=C(C(=O)Nc2ccc(F)cc2F)C2(CCN(C(C)C)CC2)OC1=O | inactive: 1.22% | 
52 | COc1ccc(C(=O)NCc2ccc(OCCN(C)C)cc2)cc1OC | inactive: -13.5% | 
53 | COc1cccc(NC(=O)CC2Nc3cc(C)c(C)cc3NC2=O)c1 (stereo not drawn) | inactive: -0.881% | 
54 | Cc1ccc(C)c(N2CCN(C(=O)CSCc3ccccc3Cl)CC2)c1 | inactive: -11.3% | 
55 | Cc1cccc(NC(=O)CCS(=O)(=O)c2cc(Br)cc3c2N(C(=O)C2CC2)CC3)c1 | inactive: -13.2% | 
56 | Cc1ccc(CNC(=O)CC2Oc3ccc(Cl)cc3NC2=O)cc1 (stereo not drawn) | inactive: -9.99% | 
57 | CCOc1ccc(NS(=O)(=O)c2ccc3c4c(cccc24)C(=O)N3)cc1 | inactive: 8.71% [at 11.5 µM, percent change from vehicle, -100% = no light] | 
58 | Cc1ccc(CN(Cc2ccco2)C(=O)COc2ccc(C)c(C)c2)cc1 | inactive: -2.96% | 
59 | O=C(Nc1nnc(S(=O)(=O)N2CCCCC2)s1)c1ccccc1Br | inactive: -21.9% | 
60 | Cc1ccc(NC(=O)c2ccc3c(O)c(S(=O)(=O)c4ccccc4)c(=O)[nH]c3c2)cc1Cl | inactive: -11.8% | 
61 | Cc1ccc(-c2nnc(Nc3ccc(C(=O)N(C)C)cc3)c3ccccc23)cc1S(=O)(=O)N(C)C | inactive: -22.2% | 
62 | CCN(C(=O)CN1C(=O)COc2ccc(S(=O)(=O)N3CCOCC3)cc21)c1ccc(OC)cc1 | inactive: -3.14% | 
63 | CC(C)(C)CC(=O)NCC(c1ccc2c(c1)OCO2)N1CCOCC1 (stereo not drawn) | inactive: -11.4% | 
64 | O=C(Nc1cccc(F)c1)c1ccc2c(c1)N(Cc1ccccc1)C(=O)c1ccccc1S2(=O)=O | inactive: -18.3% | 
65 | O=C(COc1ccc(Cl)cc1)OCc1cc(=O)n2nc(C3CC3)sc2n1 | inactive: -6.49% | 
66 | N[C@@H](C(=O)N[C@@H]1C(=O)N2C(C(=O)O)=C(Cl)CS[C@H]12)c1ccccc1 | inactive | 
67 | COc1ccc(C(=O)NCC(c2ccc(N(C)C)cc2)N2CCc3ccccc32)cc1OC (stereo not drawn) | inactive: -16.7% | 
68 | COC(=O)c1ccccc1NC(=O)C1CCN(C(=O)N2CC(C)Oc3ccccc32)CC1 (stereo not drawn) | inactive: -15.6% | 
69 | COc1ccc(-c2nc3ccccc3s2)cc1NC(=O)c1ccc(F)cc1 | inactive: -3.64% | 
70 | CN1[C@@H]2CC[C@H]1CC(NC(=O)n1c(=O)[nH]c3ccccc31)C2 (stereo partly drawn) | inactive: -3.73% | 
71 | Cc1cccc(NC(c2ccccc2F)c2ccc3ccc(C)nc3c2O)n1 (stereo not drawn) | inactive: 10.4% | 
72 | Cc1ccc(OCC(=O)Nc2ccccc2OCc2cc(=O)n3ccccc3n2)cc1C | inactive: -4.78% | 

Row | Structure (SMILES) | activity change, positive = activation | Potency
73 | CCCN1Cc2cccc(C(=O)Nc3cccc(C(=O)OCC)c3)c2C1=O | inactive: 6.6% | 
74 | CCC1Oc2ccc(Cl)cc2N(CC(=O)NCCc2ccc(Cl)cc2)C1=O (stereo not drawn) | inactive: -23% | 
75 | CCCCCCCCCCCCCCCC[n+]1ccccc1 | inactive: -58.1% | 
76 | COCCNc1nc(NCc2cccc(Cl)c2)c2cnn(C)c2n1 | inactive: -33.1% | 
77 | COc1ccc(/C=C/C(=O)Nc2ccc3nc(N4CCC(C)CC4)cc(C)c3c2)cc1 | inactive: -32.4% | 
78 | CCc1cccc(C)c1NC(=O)Cn1nc(C)c2nn(-c3ccc(Cl)cc3)c(C)c2c1=O | inactive: -26.1% | 
79 | CCN(c1ccccc1)S(=O)(=O)c1c(-c2ccc(C)cc2)csc1C(=O)OC | inactive: -33.9% | 
80 | COc1ccccc1C(=O)Nc1ccc2oc(-c3cccc4c(Br)cccc34)nc2c1 | inactive: -12.9% | 
81 | O=C(Cc1csc2nc(-c3ccc(F)cc3)cn12)NCc1ccccc1 | inactive: 22.1% | 
82 | C=Cc1ccc(Cn2c(C)c(CNCc3ccccc3C)c(C(=O)O)c2C)cc1 | inactive: -25.7% | 
83 | COc1ccccc1CNC(=O)CCn1c(=O)c2cccn2c2cccnc21 | inactive: -13.2% | 
84 | NC1=NC(c2cccc(Cl)c2)n2c(nc3ccccc32)N1 (stereo not drawn) | inactive: -18.1% | 
85 | CCOc1ccc2c(c1)c(=O)c(S(=O)(=O)c1ccc(F)cc1)cn2CC(=O)Nc1ccccc1C | inactive: -9.62% | 
86 | CCOC(=O)c1cnn(-c2ccc(C(=O)Nc3ccc(C(C)=O)cc3)cc2)c1N | inactive: -6.79% | 
87 | CCOC(=O)c1c(S(=O)(=O)N2CCCC(C(=O)NCc3cccc(C)c3)C2)c(C)n(C)c1C (stereo not drawn) | inactive: 0% | 
88 | COc1cc2cc(CNc3ccccc3)c(=O)n(CC(=O)Nc3ccc(C)c(Cl)c3)c2cc1OC | inactive: -22.4% | 
89 | COCCN(Cc1ccco1)C(=O)c1cc2c(=O)[nH]c3ccc(C)cc3c2s1 | inactive: -14.4% | 
90 | O=C(COc1ccccc1)NCC(c1ccc(Cl)cc1)N1CCOCC1 (stereo not drawn) | inactive: -20.3% | 
91 | Cc1ccc(-c2noc(-c3ccc(N4CCN(C)CC4)c([N+](=O)[O-])c3)n2)cc1 | inactive: -20.3% | 
92 | Cc1ccc(NC(=O)c2oc3ccc4c(c3c2C)C(=O)CC(C)(C)O4)c(C)c1 | inactive: -28.7% | 
93 | COc1ccc(CCNC(=O)c2cccc(Nc3nc4ccccc4nc3-n3nc(C)cc3C)c2)cc1OC | inactive: 10.2% | 
